Assay results reported in patent US12551573B2, “Compositions and methods for the targeting of PCSK9” (Scribe Therapeutics Inc., priority 2022, dated 2026).
Where two headings read alike, the source gives them in different places.

Tested on: HBEGF locus
Type: cell-based, human
Details: high-throughput screen of dXR repression of the HBEGF gene
[1] = abundance of each domain in the library before vs after diphtheria toxin selection, listed domains met p-value <0.01 and log2(fold change) >2

B1: DOMAIN_22079 (protein, listed as Trichechus manatus)
chain: PQGSVTFEDVAVDFSQEEWELLDPAQRTLYREVMLETCRNLVSLGCSLCQPVAPPHLEQGEAVWMVDRGIPQAFCSDWETR
- Log2 (fold change) [1]: 3.4511

B2: DOMAIN_21900 (protein, listed as Equus caballus)
chain: SQGLVTFEDVAVYFSLEEWERLDAAQRDLYKEVMQENYGILVSLGYPIPKPDLIFRLEQGEEPWVPDSPRPEEGDIVTGVY
- Log2 (fold change) [1]: 2.7606

B3: DOMAIN_21988 (protein, listed as Sarcophilus harrisii)
chain: VPALVTFRDVAVDFTQEEWRHLEPAQRALHRDVMLENFQNLVSVGLPVSKVDVISLLERGEAPWQPEGGGPPDPCYDYLNW
- Log2 (fold change) [1]: 3.3393

B4: DOMAIN_21889 (protein, listed as Equus caballus)
chain: FQGSLSIEDVTVGFTQEEWQHLDPAQRTLYRDVMLENYSHLVSVGYCIPKPEVIFKLERGEQLWILEEESSSQSHPEVCKV
- Log2 (fold change) [1]: 3.6563

B5: DOMAIN_22143 (protein, listed as Pteropus vampyrus)
chain: LLTFEDVAISFSEEEWKLMDPAQKMLYSDVMQENYETVISLGLKLKKDTGNDQPISTSTLEIQASGCKVLRKARMKVAQKT
- Log2 (fold change) [1]: 2.6595

B6: DOMAIN_419 (protein, listed as Pan paniscus)
chain: MIEYQIPVSFKDVVVGFTQEEWHQLSPAQRALYRDVMLETYSNLVSVGYEGTKPDVILRLEQEEAPWIGEAACPGCHCWGI
- Log2 (fold change) (change in abundance of each domain in the library before and after diphtheria toxin selection): 3.5913

B7: DOMAIN_21985 (protein, listed as Suricata suricatta)
chain: PQKSVTFEDVAVYFTQTEWDGLSPAQRALYRDVMLENYGNVASLGFSLLKPAVILQLEGAGELGDPSLLVAGTEVGSQGVW
- Log2 (fold change) [1]: 3.6273

B8: DOMAIN_22022 (protein, listed as Tursiops truncatus)
chain: AHGSVMFSDVSIDFSQEEWDYLDLEQRDLYRDVMLENYSNLVSLGCFVSKPDVIFLLEQGKEPWKVVRKGRRRYPDLETNY
- Log2 (fold change) [1]: 3.9558

B9: DOMAIN_21896 (protein)
chain: TQGLVTFRDVAIEFSQEEWKCLEPAQKDLYKDVTLENFSNLVSLGLSLPKPDVISLLEQGKEPWMVINDMTGPWCPDLESR
modifications: Lipotes vexillifer
- Log2 (fold change) [1]: 2.8718

B10: DOMAIN_22151 (protein, listed as Trichechus manatus)
chain: QAAVTFEDVAVLLSREEWCRLAPAQRDLYRDVMLETYRNLISLGTGLTGPKPGVISQLERGHEPWVLDVQSTKGRVDGSDC
- Log2 (fold change) [1]: 3.1615

B11: DOMAIN_21862 (protein, listed as Chlorocebus sabaeus)
chain: FEELVTFEDVFVDFSPEELSSLSAPQRNLYREVMLENYRNLVFLGYQFSKPDIISRLEVEESHAMETDSRHTVICQGEAHD
- Log2 (fold change) [1]: 2.3797

B12: DOMAIN_21844 (protein, listed as Aotus trivirgatus)
chain: VQEPVTFKDVAVDFTQEEWGQLDLVQRTLYRDVMLETYGHLLSVGNQIAKPEVISLLEQGEEPWSVEQTCPQRSCPEWMRN
- Log2 (fold change) [1]: 3.467

B13: DOMAIN_21951 (protein, listed as Equus caballus)
chain: PHRLVLFRDVAVDFSQEEWACLDSEQKDLYRDVMLENYSNLVSLGFSSSKADMLSLLEQGKEPWKVVQDVARSQSSDLGSR
- Log2 (fold change) [1]: 2.8972

B14: DOMAIN_22117 (protein, listed as Sarcophilus harrisii)
chain: FHQLVTFEDVAVYLSKEEWKRLNLAQRELYRDVMLENYENLLSLGFPVSKPDIISQLEQRKEAWIVQGPEKRKFSQNAHRD
- Log2 (fold change) [1]: 2.5969

B15: DOMAIN_21993 (protein)
chain: MAFKDVAVAFTQKEWKLLSPAQRTLYRDVMLENYSHMVSLGIAFPKPKLIIQLEQGDEPWREESESLLDLCPEPRTEFQPH
modifications: Lipotes vexillifer
- Log2 (fold change) [1]: 2.5494
